{"source": "PubChem BioAssay AID485294", "about": "(National Center for Advancing Translational Sciences (NCATS), 2010)", "note": "Out of some 370,000 compounds screened, about 150 (0.041%) were called active. The shares of active, inactive and inconclusive entries below differ from those in the screen. Calls come from the whole dose curve; as a rule, active = well fitted inhibition curve with a large enough effect; inconclusive = small, poorly fitted or top-dose-only effect; inactive = flat fitted curve, though single readings scatter. No potency is given beside an inconclusive call; the fits are too rough."}
{"molecular_target": "Beta-lactamase (Escherichia coli (strain K12)) (UniProt P00811)", "sequence (P00811 whole entry, looked up)": "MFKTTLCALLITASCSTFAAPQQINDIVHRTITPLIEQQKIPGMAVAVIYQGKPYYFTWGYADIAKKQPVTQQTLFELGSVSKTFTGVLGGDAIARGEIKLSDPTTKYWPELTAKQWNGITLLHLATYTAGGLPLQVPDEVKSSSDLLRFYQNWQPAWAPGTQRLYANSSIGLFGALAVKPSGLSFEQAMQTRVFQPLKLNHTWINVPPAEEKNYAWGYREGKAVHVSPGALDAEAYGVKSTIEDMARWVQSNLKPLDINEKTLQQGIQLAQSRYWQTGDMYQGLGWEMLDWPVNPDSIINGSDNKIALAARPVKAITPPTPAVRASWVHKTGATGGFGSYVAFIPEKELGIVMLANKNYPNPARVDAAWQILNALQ", "assay": "qHTS Inhibitors of AmpC Beta-Lactamase (assay with detergent); note: nearly all actives have a fitted effect of over 25% in size; note: potency is the fitted concentration of half-maximal effect; tags give direction and shape of the fitted curve", "details": "AmpC hydrolysis of nitrocefin, absorbance 480 nm, 0.01% Triton; series mostly up to 114 µM", "summary_of_the_method": "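20 mM phosphate pH 7.0 + 0.01% (detergent screen) or 0.0001% Triton X-100; 5.3 nM AmpC reagent; cpd preinc 15 min RT; nitrocefin (800 uM stock) to start; A480 q20 s × 4 min; Activity was normalised to no-enzyme and no-compound control wells.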"}
{"compound": "CC(CCC(=O)Nc1nncs1)C(=O)O", "note": "(stereo unspecified)", "Potency": "inconclusive [inhibitor, full curve]"}
{"compound": "COc1ccc(NC(=O)CCc2c(C)nc3c(c2C)c(=O)n(C)c(=O)n3C)c(OC)c1", "Potency": "inactive"}
{"compound": "Nc1nnc(SCC(=O)Nc2sc3c(c2C(=O)c2ccccc2)CCCC3)s1", "Potency": "inactive"}
{"compound": "CCOc1ccc2[nH]c3c(NCCOC)ncnc3c2c1", "Potency": "inactive"}
{"compound": "Cc1ccc2cc(CCNC(=O)c3ccc4c(c3)OCO4)c(=O)[nH]c2c1C", "Potency": "inconclusive [inhibitor, full curve]"}
{"compound": "CCOc1cc(C(=O)N(C)c2ccccc2)cc(OCC)c1OCC", "Potency": "inconclusive [inhibitor, full curve]"}
{"compound": "Cn1c(=O)c(C(=O)CCl)c(N)n(CC2CC2)c1=O", "Potency": "inconclusive [inhibitor, partial curve, poor fit]"}
{"compound": "C=CCSC1=N/C(=C\\c2ccc(C)o2)C(=O)S1", "Potency": "inconclusive [inhibitor, partial curve, poor fit]"}
{"compound": "O=C(Cn1c(=O)sc2ccccc21)NCCOc1ccccc1F", "Potency": "inconclusive [inhibitor, full curve, poor fit]"}
{"compound": "COc1ccc(C2C(=O)N(C3CCCCC3)CC(=O)N2CCc2ccc(C)cc2)cc1OC", "note": "(stereo unspecified)", "Potency": "inactive"}
{"compound": "CCc1ccccc1NC(=O)C1CCCN1C(=O)NCc1ccccc1", "note": "(stereo unspecified)", "Potency": "inconclusive [inhibitor, full curve, poor fit]"}
{"compound": "COC(=O)C1=C(C)NC(=S)NC1c1ccc(-c2ccccc2C(=O)OC)o1", "note": "(stereo unspecified)", "Potency": "inactive"}
{"compound": "O=C(C1CCC1)N1CCC(O)(c2cccc(F)c2)CC1", "Potency": "inactive"}
{"compound": "CCCNC(=S)NCc1ccc(Cl)cc1", "Potency": "inconclusive [inhibitor, full curve, poor fit]"}
{"compound": "Cc1ccc(SCC(=O)OCC(=O)NCCCc2ccccc2)cc1", "Potency": "inactive"}
{"compound": "CN1CCC(N(C)C(=O)c2ccc(Cl)c(S(=O)(=O)N3CCOCC3)c2)CC1", "Potency": "inconclusive [inhibitor, full curve, poor fit]"}
{"compound": "O=[N+]([O-])c1ccc(N2CCNCC2)cc1Sc1ccccn1", "Potency": "inconclusive [inhibitor, full curve]"}
{"compound": "CCOC(=O)c1[nH]c(C)c(C(=O)NCc2cccnc2)c1C", "Potency": "inconclusive [inhibitor, partial curve, poor fit]"}
{"compound": "Cc1ccc(S(=O)(=O)CCC(=O)OCC(=O)N2CCc3ccccc32)cc1", "Potency": "inconclusive [inhibitor, full curve]"}
{"compound": "CCSc1nc2c(c(=O)[nH]c(=O)n2C)n1Cc1ccc(Cl)cc1", "Potency": "inconclusive [inhibitor, full curve, poor fit]"}
{"compound": "CC(=O)c1ccc2c(c1)OCO2", "Potency": "inconclusive [inhibitor, full curve, poor fit]"}
{"compound": "COc1ccc(C2CCCN2C(=O)c2cccs2)cc1", "note": "(stereo unspecified)", "Potency": "inconclusive [inhibitor, single point]"}
{"compound": "COc1cc(C2CC(=O)N(Cc3cccc(F)c3)c3ccccc3S2)cc(OC)c1OC", "note": "(stereo unspecified)", "Potency": "inactive"}
{"compound": "CSCCC(NC(=O)C12CC3CC(CC(C3)C1)C2)C(=O)OCC(=O)c1ccc(C)cc1", "note": "(stereo unspecified)", "Potency": "inconclusive [inhibitor, full curve]"}
{"compound": "CN(c1ccc(C(=O)NC2CCCC2)cc1)S(=O)(=O)c1ccc(Cl)cc1", "Potency": "inactive"}
{"compound": "CCOCCc1nn2c(=O)cc(CSCC(=O)Nc3ccccc3)nc2s1", "Potency": "inactive"}
{"compound": "Cc1cc2nc(-c3ccc(OCc4ccccc4C)cc3)cc(C(F)(F)F)n2n1", "Potency": "inactive"}
{"compound": "CC1CCN(C(=O)c2c(NC(=O)c3ccccc3Cl)sc3c2CCC(C(C)(C)C)C3)CC1", "note": "(stereo unspecified)", "Potency": "inactive"}
{"compound": "COc1ccc(OC)c(NC(=O)CSc2nnc3ccc(-c4ccncc4)nn23)c1", "Potency": "inconclusive [inhibitor, full curve, poor fit]"}
{"compound": "CCCC(CCC)C(=O)Nc1c[nH]c(=O)[nH]c1=O", "Potency": "inconclusive [inhibitor, full curve, poor fit]"}
{"compound": "COC(=O)c1cc2oc(C)cc2n1Cc1ccccc1Cl", "Potency": "inactive"}
{"compound": "COc1ccc([N+](=O)[O-])cc1NC(=O)C1CCCCC1C(=O)O", "note": "(stereo unspecified)", "Potency": "inconclusive [inhibitor, partial curve, poor fit]"}
{"compound": "CC1CN(C(=O)c2cccc(S(=O)(=O)N3CCOCC3)c2)CC(C)O1", "note": "(stereo unspecified)", "Potency": "inconclusive [inhibitor, full curve, poor fit]"}
{"compound": "COC(CNC(=O)c1ccc2c(c1)nc(C)n2-c1cccc(F)c1)OC", "Potency": "inconclusive [inhibitor, full curve, poor fit]"}
{"compound": "Cc1cccc(NC(=O)Cn2nc(-c3ccco3)ccc2=O)c1C", "Potency": "inactive"}
{"compound": "COc1ccc2[nH]c3c(c2c1)CCNC3c1ccc([N+](=O)[O-])o1", "note": "(stereo unspecified)", "Potency": "inactive"}
{"compound": "O=[N+]([O-])c1ccc(O)c(C2=NNC(c3ccccc3F)C2)c1", "note": "(stereo unspecified)", "Potency": "inactive"}
{"compound": "O=C(COC(=O)C1=COCCO1)Nc1ncc(C(F)(F)F)cc1Cl", "Potency": "inconclusive [inhibitor, full curve, poor fit]"}
{"compound": "COc1ccc(NC(=O)C2CCC(CNS(=O)(=O)c3cccc4nsnc34)CC2)cc1OC", "note": "(stereo unspecified)", "Potency": "inactive"}
{"compound": "Cc1ccccc1NC(=S)Nc1ccc(Br)cc1", "Potency": "inconclusive [inhibitor, single point]"}
{"compound": "Cc1cc(C(=O)N/N=C/c2ccc3ccccc3c2)n[nH]1", "Potency": "inconclusive [inhibitor, full curve, poor fit]"}
{"compound": "COc1ccc2c(c1)[C@@]13CCC=C[C@H]1[C@@H](C2)NCC3", "Potency": "inconclusive [inhibitor, full curve, poor fit]"}
{"compound": "O=C(CSc1nc2c(c(=O)n1-c1ccc(Cl)cc1)SCC2)N1CCOCC1", "Potency": "inconclusive [inhibitor, partial curve]"}
{"compound": "CN(C)N1C(N)=C(C#N)C(c2ccsc2)C2=C1CC(C)(C)CC2=O", "note": "(stereo unspecified)", "Potency": "inconclusive [inhibitor, full curve]"}
{"compound": "CCc1c(C)nc(SC/C=C/c2ccccc2)[nH]c1=O", "Potency": "inconclusive [inhibitor, full curve]"}
{"compound": "O=[N+]([O-])c1cc(/C=N/n2cnnc2)ccc1N1CCCC1", "Potency": "inconclusive [inhibitor, full curve, poor fit]"}
